The whole screen tested about 310,000 compounds, of which about 18,000 (5.8%) were called active. This list was built around the results that the source calls inconclusive (neither active nor inactive); the mix of calls is not that of the screen. Calls come from the whole dose curve; as a rule, active = well fitted inhibition curve with a large enough effect; inconclusive = small, poorly fitted or top-dose-only effect, or another doubt; inactive = no such curve, though single readings can be large or run the other way. No potency is given beside an inconclusive call; the fits are too rough.
Assay: Primary qHTS for delayed death inhibitors of the malarial parasite plastid, 48 hour incubation
Details: P. falciparum luciferase growth in erythrocytes; series mostly up to 28.7 µM; activity change, negative = inhibition: at the top concentration
Method in brief: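 Compounds are pin-transferred into medium, infected erythrocytes (2% hematocrit, 0.1% parasitemia final) are added, and plates sit one parasite generation at 37 C in 5% CO2. Detection reagent is then added and luminescence measured.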
% is set by controls: 0 for no effect and ±100 for the full control effect; potency is the fitted concentration of half-maximal effect; tags give direction and shape of the fitted curve.

| Structure (SMILES) | Potency | activity change, negative = inhibition |
| --- | --- | --- |
| COc1ccc(Cc2noc(CN(C)CCc3ccccc3)n2)cc1OC | inconclusive [inhibitor, single point] |  |
| COc1ccc(-n2nnnc2SCC(=O)Nc2ccccc2N2CCOCC2)cc1 | inconclusive [inhibitor, partial curve] |  |
| O=C(COC(=O)c1ccccc1Br)NCCc1ccc(F)cc1 |  | inactive: 15.2% |
| CCOC(=O)COc1ccc2c(c1)C(=O)CC1(CCN(C(C)=O)CC1)O2 | inconclusive [inhibitor, single point] |  |
| COC(=O)c1sccc1-n1cccc1C(=O)N1CCOCC1 |  | inactive: -7.37% |
| O=C(/N=C1/c2ccccc2CN1c1ccccc1)Nc1ccccc1 |  | inactive: 10.3% |
| CCOC(=O)c1ccc(N2C(=O)C(CC(=O)NC)N(CCc3ccc(OC)c(OC)c3)C2=S)cc1 (stereo unspecified) | active: 13.1 µM |  |
| COc1ccc(NC(=O)CCC(=O)N(Cc2ccc(OC)c(OC)c2)c2nccs2)c(OC)c1 |  | inactive: 7.35% |
| C/C(=N\NC(=O)CSCc1ccc([N+](=O)[O-])cc1)c1ccccc1 |  | inactive: 16.3% |
| Cc1c(C)n(CCc2ccccc2)c2ncnc(NN)c12 |  | inactive: -3.01% |
| O=C1CC(N(CCc2ccccc2)C(=S)Nc2ccccc2)C(=O)N1c1ccccc1 (stereo unspecified) | inconclusive [inhibitor, single point] |  |
| CCOc1cc2c(cc1OCC)-n1cccc1C(c1cccc([N+](=O)[O-])c1)NC2 (stereo unspecified) | inconclusive [inhibitor, partial curve] |  |
| Cc1ccc2c(c1)N(CC(=O)N1CCCC1)C(=O)C(C)O2 (stereo unspecified) | inconclusive [inhibitor, partial curve, poor fit] |  |
| COc1ccc(/C=C/C(=O)Oc2ccc(/C=N/NC(=O)COc3c(C)cccc3C)cc2)cc1 | inconclusive [inhibitor, partial curve] |  |
| COc1cccc(NC(=O)CN(C)C(=O)Cc2ccc3c(c2)OCCO3)c1 | inconclusive [inhibitor, single point] |  |
| CCOC(=O)c1sc2nc(CC(=O)OC)nc(NCC(=O)OC)c2c1C | inconclusive [inhibitor, partial curve, poor fit] |  |
| CCCCCCCCCCCCN1C/C(=C\C(=O)OCC)c2ccccc2S1(=O)=O | inconclusive [inhibitor, full curve] |  |
| CS(=O)(=O)N1CCc2cc(-c3csc(NC(=O)C(c4ccccc4)c4ccccc4)n3)ccc21 | active: 13.1 µM |  |
| CCCc1cc(-c2n[nH]c(C(=O)OCC)c2-c2cscn2)c(O)cc1O | inconclusive [inhibitor, single point] |  |
| COc1ccc(-c2noc(N3CCCC(C(=O)Nc4ccc(C(C)=O)cc4)C3)n2)cc1 (stereo unspecified) | inconclusive [inhibitor, single point] |  |
| CCn1c(=O)c(C(=O)Nc2ccccc2S(N)(=O)=O)c(O)c2ccccc21 |  | inactive: 49.5% |
| COc1cccc2c1C(CO)N1C(C#N)C3CC(C(=O)O)C(C1C2)N3C (stereo unspecified) | inconclusive [inhibitor, full curve] |  |
| COc1cc(C(=O)N2CCN(c3cc(Cl)ccc3Cl)CC2)cc(OC)c1OC |  | inactive: 2.51% |
| O=C(c1cccs1)N1N=C(c2ccc(O)cc2)CC1c1ccccc1 (stereo unspecified) | inconclusive [inhibitor, partial curve, poor fit] |  |

| Structure (SMILES) | Potency | activity change, negative = inhibition |
| --- | --- | --- |
| Cc1ccc(Cn2c(=O)c3ccccc3n3nc(C)cc23)cc1 | inconclusive [inhibitor, single point] |  |
| COc1ccc(-c2ccc(C#N)c(SCC(=O)NC3CC3)n2)cc1OC |  | inactive: -2.92% |
| C/C(=N/NC(=O)C1CCN(S(=O)(=O)c2ccc(C)cc2)CC1)c1cccc([N+](=O)[O-])c1 |  | inactive: 2.11% |
| CCN(CC)S(=O)(=O)c1ccc2oc(C(=O)N3CCCCCC3)c(C)c2c1 | active: 13.1 µM |  |
| COc1ccc(C)cc1NC(=O)CCNC(=O)c1ccco1 | inconclusive [inhibitor, partial curve, poor fit] |  |
| COc1cc2[nH]c(=O)n(CCC(=O)NCCCN3CCN(c4ccccc4F)CC3)c(=O)c2cc1OC | inconclusive [inhibitor, partial curve] |  |
| O=C(CC1C(=O)NCCN1C/C=C/c1ccccc1)NCCc1cnccn1 (stereo unspecified) | inconclusive [inhibitor, partial curve] |  |
| O=C(Nc1ccccc1N1CCCC1)C1CCN(C(=O)c2ccc(F)cc2)CC1 | inconclusive [inhibitor, single point] |  |
| O=C(COC(=O)CCc1nc2ccccc2c(=O)[nH]1)Nc1ccc2c(c1)OCO2 |  | inactive: 22.1% |
| COCCN(CC(=O)Nc1cccc(C)c1C)C(=O)c1ccc(-n2cccn2)cc1 | inconclusive [inhibitor, partial curve, poor fit] |  |
| Cc1ccc(N(C(=O)Cc2c[nH]c3ccccc23)C(C(=O)NC2CCCCC2)c2ccco2)cc1 (stereo unspecified) | active: 10.4 µM |  |
| Nc1nc2ccccc2n1CCOc1ccc(Cl)cc1 | inconclusive [inhibitor, partial curve] |  |
| O=c1[nH]c(N/N=C\c2ccc3c(c2)OCO3)nc2ccccc12 |  | inactive: -76.2% |
| N=c1c2c(-c3ccccc3)c(-c3ccccc3)n(Cc3ccco3)c2ncn1CCN1CCOCC1 | inconclusive [inhibitor, partial curve, poor fit] |  |
| COc1cccc2sc3ccc(C#Cc4ccc(N)cc4)cc3c(=O)c12 |  | inactive: 70.8% |
| CCNC(=O)CSc1nc2ccccc2c(=O)n1CCCOC(C)C | inconclusive [inhibitor, partial curve, poor fit] |  |
| O=C(O)c1ccc(NS(=O)(=O)c2ccc(N3CCCC3)c([N+](=O)[O-])c2)cc1 | inconclusive [inhibitor, single point] |  |
| COc1ccc(N2Cc3ccccc3C2=NC(=O)c2ccc(C)cc2)cc1OC | inconclusive [inhibitor, single point] |  |
| CSCC[C@H](NC(=O)OC(C)(C)C)C(=O)N/N=C/c1cc2ccc(C)cc2nc1Cl | inconclusive [inhibitor, single point] |  |
| O=C(NCc1ccco1)c1cc2sccc2n1Cc1ccccc1 | active: 11.7 µM |  |
| Cc1ccc(C(=O)Cn2c(NCCO)nc3ccccc32)cc1 |  | inactive: 45.7% |
| Cc1ccccc1/C=C1\CCCc2ccccc2C1=O |  | inactive: 170% |
| COc1ccc2cc3cc(C(=O)NCCCN4CCC(C)CC4)oc3nc2c1 | inconclusive [inhibitor, single point] |  |
| c1ccc(-n2cnc3cc(NCc4ccncc4)ccc32)cc1 | inconclusive [inhibitor, single point] |  |

| Structure (SMILES) | Potency | activity change, negative = inhibition |
| --- | --- | --- |
| COc1ccc(-n2nc(C(=O)NCC(=O)N3CCN(c4cccc(Cl)c4)CC3)c3ccccc3c2=O)c(OC)c1 | inconclusive [inhibitor, single point] |  |
| Cc1ccc(C(=O)O)cc1NS(=O)(=O)c1ccc2c(c1)oc(=O)n2C |  | inactive: 19.5% |
| Cc1cc(=O)oc2c(C(=O)/C=C/c3ccccc3)c(O)ccc12 | active: 5.86 µM |  |
| CCCCn1nnnc1SCC(=O)N1CCCC1 |  | inactive: 35.4% |
| CCOc1ccc(Nc2cc(=O)oc3ccccc23)cc1 | active: 1.31 µM |  |
| CN1CC2([N+](=O)[O-])CC=C(Oc3ccccc3)C([N+](=O)[O-])(C1)C2 (stereo unspecified) | inconclusive [inhibitor, single point] |  |
| Cc1ccc2c(c1)cc1c(=O)[nH]ncn12 |  | inactive: 52.5% |
| CC1CCCC(C)N1CCCNC(=O)c1csc2c1CCCCC2 (stereo unspecified) |  | inactive: 16.4% |
| CCOc1ccc(C2=CSC3=NCCN23)cc1 | inconclusive [inhibitor, partial curve, poor fit] |  |
| CN(C)CCCNC(=O)c1ccc2[nH]c3ccccc3c2c1 | inconclusive [inhibitor, partial curve, poor fit] |  |
| Cc1ccc(-c2nc3ccccc3c(=O)n2NC(=S)N(C)C)cc1 |  | inactive: 5.89% |
| COc1ccccc1N(C(=O)CCl)c1cn(C(C)=O)c2ccccc12 | inconclusive [inhibitor, single point] |  |
| O=C(c1ccc(F)cc1)N1CCCC(C(=O)N2CCCCC2)C1 (stereo unspecified) | inconclusive [inhibitor, single point] |  |
| Cc1noc(C)c1COc1ccccc1C(=O)NCc1ccco1 | inconclusive [inhibitor, single point] |  |
| Nc1nc(-c2ccccc2)c(N=Nc2ccc(Cl)cc2)s1 |  | inactive: 24.1% |
| COc1ccc(Nc2c(-c3ccc(OC)cc3)nc3cnccn23)cc1 | inconclusive [inhibitor, full curve, poor fit] |  |
| CN(CC(=O)Nc1cccc2ccccc12)C(=O)c1cccc(S(=O)(=O)N(C)C)c1 | inconclusive [inhibitor, single point] |  |
| COC(=O)Cn1c(=NC(=O)c2ccc([N+](=O)[O-])s2)sc2cc(Br)ccc21 | inconclusive [inhibitor, full curve] |  |
| O=C(Cn1ncc2c3ccccc3n(Cc3ccccc3F)c2c1=O)NCC1CCCO1 (stereo unspecified) |  | inactive: -14.4% |
| CCN(CC)C(=O)c1cn(-c2ccccc2)nc1-c1ccc2c(c1)OCCO2 | inconclusive [inhibitor, single point] |  |
| CC(C)(C)NC(=O)CN1C(=O)NC(c2ccccc2)(c2ccccc2)C1=O | inconclusive [inhibitor, partial curve, poor fit] |  |
| Oc1ccc(/C=N/n2c(COc3ccccc3)n[nH]c2=S)cc1O | inconclusive [inhibitor, single point] |  |
| O=C(CSC1=NS(=O)(=O)c2cc(Cl)ccc2N1)Nc1cccc(F)c1 |  | inactive: -13.9% |

Reference: PubChem BioAssay AID504832 (National Center for Advancing Translational Sciences (NCATS), 2011)
